Two molecules from patent EP4578463A1, “ENDO-180 TARGETED ANTIBODY-DRUG CONJUGATES” (Oncomatryx Biopharma, S.L., priority 2023, dated 2025) can be followed below.

Data set [1] deals with IC9LC11 non-small cell lung cancer patient-derived xenograft. Kind of data set: Antitumor activity in IC9LC11 non-small cell lung cancer patient-derived xenograft model. It counts as in vivo, immunodeficient female mice. The note with it: control group end day, D28. On the technique in general: Xenograft models place foreign cells or tissue in a host animal.
Data set [2] has as its system parental HEK293. Kind of data set: Cell viability assay on parental HEK293 cells. It counts as cell-based. The note with it: no IC50 reached up to highest concentration. On the procedure: The different anti-Endo180 antibodies (OMTX007-G7V, OMTX707, OMTX807) were analyzed via cell viability assay using the HEK293-Endo180 and HEK293 cell lines. […] No cell killing was detected with the unconjugated OMTX007 antibody and no IC50 values were reached up to 100nM for OMTX807 and OMTX707 in parental HEK293, showing that their activity was Endo180-dependent (see Table 5 below). (Figure 12). Table 5: Summary of OMTX007-G7V, OMTX707 and OMTX807 activity using cell viability analysis on Endo180 versus parental HEK293 cells. n.d.: not determined; mean ± SD: n=2.

The nature of data set [3]: Tolerability (body weight, clinical observations) in IC9LC11 xenograft study. It counts as in vivo, immunodeficient female mice. The note with it: IC9LC11 xenograft mice.
The test system of data set [4] is SA4033 leiomyosarcoma patient-derived xenograft. Kind of data set: Antitumor activity in subcutaneous SA4033 leiomyosarcoma patient-derived xenograft model. It counts as in vivo, NOD/SCID immunodeficient female mice. How it is done:
(§1) The antitumor activity of OMTX707 was evaluated in a subcutaneous SA4033 leiomyosarcoma patient-derived xenograft model developed in NOD/SCID immunodeficient female mice.
(§2) OMTX707 was administered intravenously at 10 and 30mg/kg once per week for 4 weeks.

Data set [5] in a line: Tolerability (body weight, clinical observations) in SA4033 xenograft study. It counts as in vivo, NOD/SCID immunodeficient female mice. The settings on record: 10 and 30 mg/kg; SA4033 xenograft mice. On the procedure:
as §1, §2

B1: OMTX807 (conjugate)
heavy: EVQLVESGGGLVKPGGSLRLSCAASGFTFSSYSMNWVRQAPGKGLEWVANIKPDGSERHSVDSVKGRFTISRDNSKNSLYLQMNSLRAEDTAVYYCARPGAGRLDYWGQGTLVTVSS[omitted - human IgG1 constant region]
light: SSELTQDPAVSVALGQTVRITCQGDSLRSYYASWYQQKPGQAPVLVVYGKNNRPSGIPDRFSGSSSGNTASLTITGAQAEDEADYYCNSRDSSGNPWAFGGGTKVTVLGQPKAAPSVTLFPPSSEELQANKATLVCLISDFYPGAVTVAWKADSSPVKAGVETTTPSKQSNNKYAASSYLSLTPEQWKSHRSYSCQVTHEGSTVEKTVAPTECS
Broadly, the IC50 is the midpoint of a concentration-inhibition curve. As to B1, the TGI is given as 61% in data set [1] (10 mg/kg twice per week for 4 weeks) and 101% in data set [1] (30 mg/kg twice per week for 4 weeks). The IC50 in data set [2] was more than 100 nM. Moreover, the “tolerability based on body weight data and clinical observations” value in data set [3] is given as “well tolerated”.

B2: OMTX707: G7V antibody conjugated with the drug-linker TAM558 (cytolysin-linker maleimide caproyl vcPABA); DAR 3.79 (conjugate)
heavy: EVQLVESGGGLVKPGGSLRLSCAASGFTFSSYSMNWVRQAPGKGLEWVANIKPDGSERHSVDSVKGRFTISRDNSKNSLYLQMNSLRAEDTAVYYCARPGAGRLDYWGQGTLVTVSS[omitted - human IgG1 constant region]
light: SSELTQDPAVSVALGQTVRITCQGDSLRSYYASWYQQKPGQAPVLVVYGKNNRPSGIPDRFSGSSSGNTASLTITGAQAEDEADYYCNSRDSSGNPWAFGGGTKVTVLGQPKAAPSVTLFPPSSEELQANKATLVCLISDFYPGAVTVAWKADSSPVKAGVETTTPSKQSNNKYAASSYLSLTPEQWKSHRSYSCQVTHEGSTVEKTVAPTECS
On to B2, for which the IC50 in data set [2] is more than 100 nM. In addition, the “anti-tumor efficacy compared to the vehicle control group” value is recorded as “no anti-tumor efficacy” in data set [4] (10 mg/kg intravenously once a week) and “mild anti-tumor efficacy” in data set [4] (30 mg/kg intravenously once a week, p=0.114). Further, the TGI in data set [4] (10 mg/kg once a week, day 48) is on record as 2.72%; in data set [4] (30 mg/kg once a week, day 42), 48.10%; in data set [4] (30 mg/kg once a week, day 48) it was 48.10%. The “tolerability based on body weight data and clinical observations” value in data set [5] is “well tolerated”.
